Where “and” joins values, the source holds several entries; their conditions need not be identical. Identical values can stand only once. The campaign covered roughly 420,000 compounds. About 64,000 (15%) were called active. Inconclusive means that the source gave no clear call. Such entries were picked first, then a sample of the others. The call rests on the fitted dose curve; in most records, active means well fitted inhibition curve with a large enough effect; inconclusive means small, poorly fitted or top-dose-only effect; inactive means flat fitted curve, though single readings scatter. Where the call is inconclusive, the potency comes from a doubtful curve fit.
Assay: qHTS for Inhibitors of human tyrosyl-DNA phosphodiesterase 1 (TDP1): qHTS in cells in absence of CPT; further: nearly all actives have a fitted effect of over 55% in size
Conditions: DT40 Tdp1-/- hTDP1 cells, no CPT, ATP luminescence, 48 h; activity change, negative = growth inhibition: at 46.2 µM (top of the series) unless noted
Procedure, shortened: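 DT40 Tdp1-/-;hTDP1 cells, no CPT (DMSO vehicle only), 400 cells/well; compounds pin-transferred; ≥48 hr, 37 °C; CellTiter-Glo 30 min RT dark, luminescence read.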
On the % scale 0 is the no-effect control and ±100 the full control effect; potency means the concentration at half of the fitted maximal effect; tags describe the fitted curve by direction and shape.

| SMILES | activity change, negative = growth inhibition | Potency |
| --- | --- | --- |
| Cc1ccc(OCC(=O)OCC(=O)c2ccccc2)cc1C | inactive: 9.81% | – |
| Cc1ccc(S(=O)(=O)NCCC(=O)N2CCCCCCC2)cc1 | – | inconclusive: 0.731 µM [inhibitor, full curve, poor fit] |
| NC(Cc1ccc(O)c(O)c1)C(=O)O (stereo not drawn) | – | active: 2.91 µM |
| CCOC(=O)N1CCN(c2c(N3CCN(c4ccc(OC)cc4)CC3)c(=O)c2=O)CC1 | inactive: -25.4% | – |
| Cc1cc(Cl)ccc1Oc1nc(-c2ccccc2)ncc1S(C)(=O)=O | – | inconclusive: 16.4 µM [inhibitor, single point] |
| CCOc1ccc(CN2C(=O)c3ccccc3Sc3ccc(C(=O)O)cc32)cc1 | – | inconclusive: 20.6 µM [inhibitor, single point] |
| Cc1ccc2c(c1)N(CCCC(=O)NCCCN1CCCC1=O)C(=O)CO2 | inactive: 9.84% | – |
| Cc1cc(O)c2c(c1)O[C@@]1(C)CC[C@H]3C(C)(C)CCCC34CO[C@@H]2[C@H]41 (stereo partly drawn) | – | active: 16.8 µM |
| O=C(Nc1nnc(Cc2ccc(Cl)cc2)s1)C1CCCO1 (stereo not drawn) | – | inconclusive: 18.4 µM [inhibitor, partial curve, poor fit] |
| CC(C)(CC(=O)O)CC(=O)N1CCCN(c2nc3ccc(Cl)cc3s2)CC1 | inactive: -13.5% | – |
| COc1cc(CN2CCCC(C(=O)c3ccc4c5c(cccc35)CC4)C2)cc(OC)c1O (stereo not drawn) | – | active: 4.61 µM |
| C=CCn1c(SCc2c(F)cccc2Cl)nnc1-c1ccco1 | – | active: 16.4 µM |
| CCCN1C(=O)C2(c3ccccc31)c1c(oc3ccc(F)cc3c1=O)C(=O)N2CCCOC(C)C (stereo not drawn) | – | inconclusive: 18.4 µM [inhibitor, partial curve] |
| Cc1nnc(SCC(=O)Nc2nccs2)n(N)c1=O | inactive: -4.44% | – |
| CCOc1ccc(Br)cc1S(=O)(=O)Nc1ccc(Cl)c(S(=O)(=O)N(CC)c2ccccc2)c1 | – | inconclusive: 16.4 µM [inhibitor, single point] |
| CC(C)C(=O)N1CCN(c2nc(-c3ccc(Cl)cc3)cs2)CC1 | – | active: 13 µM |
| Cc1ccc(NC(=O)CNC2CCS(=O)(=O)C2)cc1C (stereo not drawn) | inactive: 1.11% | – |
| O=C(O)c1cc(CN2CCOCC2)oc1-c1ccccc1 | inactive: -2.12% | – |
| CCOC(=O)N1CCN(CC(=O)n2c(C)c(C)c3ccccc32)CC1 | inconclusive: -32.4% [inhibitor] | – |
| COc1ccc(-c2ccc3c(c2)[C@@H]2C[C@H](N(C)C(=O)C(C)(C)C)[C@H]([C@H](C)O)C(=O)N2CC3)cc1 | – | inconclusive: 25.9 µM [inhibitor, single point] |
| Cc1oc2ncnc(N3CCCCC3)c2c1C(=O)N1CCN(c2cccc(Cl)c2)CC1 | – | active: 16.4 µM |
| CC(C)CCOc1cccc(OCC(=O)O)c1 | inactive: -1.12% | – |
| Cn1cccc1C(=O)NC1CCCCCC1 | inactive: -21.2% | – |
| COc1ccc(C(=O)Cc2cc3ccccc3oc2=O)cc1 | inactive: -1.66% | – |

| SMILES | activity change, negative = growth inhibition | Potency |
| --- | --- | --- |
| COc1ccc(C(=O)Nc2ccc3oc(-c4cccc(F)c4)nc3c2)cc1OC | – | inconclusive: 16.4 µM [inhibitor, single point] |
| Cc1nnc(N/N=C/c2ccc(-c3ccc(Br)cc3)o2)n1N | – | inconclusive: 29.1 µM [inhibitor, single point] |
| O=C(c1ccccc1)c1sc(N2CCCCCC2)nc1-c1ccccc1 | – | active: 14.6 µM |
| CN1C(=O)c2ccccc2C(C(=O)NCCCN2CCCC2)C1c1c[nH]c2ccccc12 (stereo not drawn) | inactive: -16.9% | – |
| CC(C)(C)n1nnnc1C(c1cccs1)N1CCCc2ccccc21 (stereo not drawn) | – | inconclusive: 29.1 µM [inhibitor, single point] |
| c1coc(-c2nc3n(n2)C2(CCCCC2)[C@@H]2CCCC[C@@H]2N3)c1 | – | inconclusive: 29.1 µM [inhibitor, single point] |
| COc1cccc(C(=O)NC2CCCN(C3Cc4ccccc4C3)C2)c1OC (stereo not drawn) | inactive: 0.0664% | – |
| O=C(N/N=C/c1ccc(OCCCF)cc1)c1ccc(C(F)(F)F)cc1 | inactive: 0.373% | – |
| CC(=O)Nc1ccc(NC(=O)COc2cc(O)c3c(c2)OC(C)(C)CC3=O)cc1 | – | inconclusive: 14.6 µM [inhibitor, single point] |
| Cc1cccc(NC(=O)C2CCCN(S(=O)(=O)c3cccs3)C2)c1C (stereo not drawn) | – | inconclusive: 16.4 µM [inhibitor, single point] |
| Cc1ccc(Cl)cc1NC(=S)N(Cc1ccco1)C(C)c1cccs1 (stereo not drawn) | inconclusive: -32.6% [inhibitor] | – |
| CCCc1nn(C)c(C(=O)Nc2ccc(C)c(C)c2)c1Cl | – | inconclusive: 29.1 µM [inhibitor, single point] |
| Cc1ccc(OCCCCNC2CCCC(C)C2C)c(C)c1 (stereo not drawn) | – | active: 7.31 µM |
| Cc1ccnc(-n2sc3ccccc3c2=O)n1 | – | active: 5.17 µM |
| Cc1ccc(NC(=O)Cn2ncc(Cl)c(Cl)c2=O)cc1S(=O)(=O)N1CCCCC1 | – | active: 3.26 µM |
| O=S(=O)(c1cccs1)n1cnc2ccccc21 | – | inconclusive: 18.4 µM [inhibitor, single point] |
| COc1ccc(OC)c(NS(=O)(=O)c2ccc(-c3cc(C)no3)s2)c1 | – | active: 0.58 µM |
| COc1ccc(CNC(=O)CCCn2nc(C)c3c(C)n(-c4ccccc4)nc3c2=O)cc1 | – | inactive and inconclusive: 18.4 µM [inhibitor, single point] |
| CCN1C(=O)CC(CC(=O)N2CCCCC2c2nccs2)(c2ccccc2C)C1=O (stereo not drawn) | inactive: -12.3% | – |
| CCN(C(=O)CSc1nc(-c2ccc(C(C)C)cc2)no1)c1cccc(C)c1 | – | inconclusive: 23.1 µM [inhibitor, single point] |
| CCCCCCCCCCCCCCCC[N+](C)(C)CCl | – | active: 2.31 µM |
| NC(=O)C1CCN(C(=O)c2ccc3c(=O)n(Cc4ccco4)c(SCc4ccc([N+](=O)[O-])cc4)nc3c2)CC1 | – | inconclusive: 25.9 µM [inhibitor, single point] |
| CCOC(=O)C1=C(N)Oc2ccc3ccccc3c2C1c1ccc(O)cc1 (stereo not drawn) | – | inconclusive: 25.9 µM [inhibitor, single point] |
| C#CCOCCOCCOCCNc1nc(N2CCN(C(=O)CCCCCCCCCCNC(=O)Cn3cc(CCCCCN)nn3)CC2)nc(N2CCN(C(=O)CCCCCCCCCCNC(=O)[C@@H](CCSC)n3cc(CCO)nn3)CC2)n1 | – | inconclusive: 16.4 µM [inhibitor, single point] |
